Experimental data as given in patent US20240376185A1 (SMIVET B V, published 2024).

Legend:
chicken ovalbumin [1] = molecular target: T1, chicken ovalbumin (chicken, UniProt P01012 2-386); experiment: ELISA; A450 below 0.2 at highest SDA concentration
T1 construct: also called Chicken Alb
T1 sequence (looked up): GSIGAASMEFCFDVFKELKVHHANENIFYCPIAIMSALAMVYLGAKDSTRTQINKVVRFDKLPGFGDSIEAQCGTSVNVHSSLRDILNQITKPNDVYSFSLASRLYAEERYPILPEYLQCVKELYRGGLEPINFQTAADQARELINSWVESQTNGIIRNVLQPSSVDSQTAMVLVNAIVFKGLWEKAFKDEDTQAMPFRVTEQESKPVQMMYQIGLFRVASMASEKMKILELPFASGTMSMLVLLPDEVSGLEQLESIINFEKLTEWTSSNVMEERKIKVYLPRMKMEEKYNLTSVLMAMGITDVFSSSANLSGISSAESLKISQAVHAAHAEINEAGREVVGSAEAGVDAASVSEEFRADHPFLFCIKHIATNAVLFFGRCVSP

bovine albumin [2] = molecular target: T2, bovine albumin (bovine, UniProt P02769 25-607); experiment: ELISA; A450 below 0.2 at highest SDA concentration
human albumin [3] = molecular target: T3, human albumin (human, UniProt P02768 25-609); experiment: ELISA; A450 below 0.2 at highest SDA concentration
swine albumin [4] = molecular target: T4, swine albumin (swine, UniProt P08835 25-607); experiment: ELISA; A450 below 0.2 at highest SDA concentration
T4 construct: also called Porcine albumin

cat albumin [5] = molecular target: T5, cat albumin (cat, UniProt P49064 25-608); experiment: ELISA; A450 below 0.2 at highest SDA concentration
T5 construct: also called Feline albumin

mouse albumin [6] = molecular target: T6, mouse albumin (mouse, UniProt P07724 25-608); experiment: ELISA; A450 below 0.2 at highest SDA concentration
sheep albumin [7] = molecular target: T7, sheep albumin (sheep, UniProt P14639 25-607); experiment: ELISA; A450 below 0.2 at highest SDA concentration
chicken ovalbumin [8] = molecular target: T1, chicken ovalbumin; experiment: ELISA on coated albumin
bovine albumin [9] = molecular target: T2, bovine albumin; experiment: ELISA on coated albumin
human albumin [10] = molecular target: T3, human albumin; experiment: ELISA on coated albumin
swine albumin [11] = molecular target: T4, swine albumin; experiment: ELISA on coated albumin
mouse albumin [12] = molecular target: T6, mouse albumin; experiment: ELISA on coated albumin
sheep albumin [13] = molecular target: T7, sheep albumin; experiment: ELISA on coated albumin
cat albumin [14] = molecular target: T5, cat albumin; experiment: ELISA on cat albumin captured from serum
Cat albumin [15] = molecular target: T8, Cat albumin (cat, UniProt P49064 25-608); experiment: BLI (Octet Red96), SDA on Ni-NTA sensor, albumin as analyte
T8 construct: also called Feline albumin; Feline Alb

Dog albumin [16] = molecular target: T9, Dog albumin (dog, UniProt P49822 25-608); experiment: as above
T9 construct: also called Canine albumin; Canine Alb

dog albumin [17] = molecular target: T10, dog albumin (dog, UniProt P49822 25-608); experiment: ELISA on coated albumin
T10 construct: also called Canine albumin

horse albumin = molecular target: T11, horse albumin (horse, UniProt P35747 25-607); experiment: ELISA on coated albumin
T11 construct: also called Equine albumin

T4 sequence (P08835 25-607 limits assumed): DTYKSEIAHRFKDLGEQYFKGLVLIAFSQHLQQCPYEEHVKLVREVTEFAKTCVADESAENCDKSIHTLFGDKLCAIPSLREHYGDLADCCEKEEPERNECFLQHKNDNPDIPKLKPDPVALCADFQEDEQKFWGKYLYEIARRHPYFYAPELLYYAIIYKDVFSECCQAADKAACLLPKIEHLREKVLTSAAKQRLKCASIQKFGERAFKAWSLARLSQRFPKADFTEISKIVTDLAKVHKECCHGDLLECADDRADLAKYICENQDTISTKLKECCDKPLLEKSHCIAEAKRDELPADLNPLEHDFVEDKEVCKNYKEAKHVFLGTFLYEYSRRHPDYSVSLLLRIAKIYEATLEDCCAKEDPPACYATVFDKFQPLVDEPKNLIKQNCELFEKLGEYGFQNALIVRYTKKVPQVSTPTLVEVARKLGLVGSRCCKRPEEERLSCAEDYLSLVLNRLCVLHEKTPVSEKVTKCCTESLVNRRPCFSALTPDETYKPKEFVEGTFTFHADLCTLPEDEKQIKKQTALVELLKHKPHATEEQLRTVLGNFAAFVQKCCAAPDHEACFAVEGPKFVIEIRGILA
Sequence of Dog albumin (P49822 25-608 limits assumed): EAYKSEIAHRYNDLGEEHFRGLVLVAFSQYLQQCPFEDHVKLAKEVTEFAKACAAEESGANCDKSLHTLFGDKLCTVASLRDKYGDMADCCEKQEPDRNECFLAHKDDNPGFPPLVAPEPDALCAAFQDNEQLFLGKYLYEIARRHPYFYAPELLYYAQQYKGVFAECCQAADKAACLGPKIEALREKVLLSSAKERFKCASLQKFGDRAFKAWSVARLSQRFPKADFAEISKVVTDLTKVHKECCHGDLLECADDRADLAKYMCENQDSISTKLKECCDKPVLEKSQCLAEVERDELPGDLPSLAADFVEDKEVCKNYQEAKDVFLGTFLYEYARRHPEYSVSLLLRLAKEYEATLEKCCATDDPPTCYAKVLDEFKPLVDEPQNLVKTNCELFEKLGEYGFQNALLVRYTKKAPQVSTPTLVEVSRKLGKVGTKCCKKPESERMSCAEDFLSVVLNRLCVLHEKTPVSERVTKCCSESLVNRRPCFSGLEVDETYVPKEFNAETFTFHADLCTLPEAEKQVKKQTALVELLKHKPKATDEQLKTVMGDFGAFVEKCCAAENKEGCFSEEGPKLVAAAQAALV
Sequence of dog albumin (P49822 25-608 limits assumed): as above
T5 sequence (P49064 25-608 limits assumed): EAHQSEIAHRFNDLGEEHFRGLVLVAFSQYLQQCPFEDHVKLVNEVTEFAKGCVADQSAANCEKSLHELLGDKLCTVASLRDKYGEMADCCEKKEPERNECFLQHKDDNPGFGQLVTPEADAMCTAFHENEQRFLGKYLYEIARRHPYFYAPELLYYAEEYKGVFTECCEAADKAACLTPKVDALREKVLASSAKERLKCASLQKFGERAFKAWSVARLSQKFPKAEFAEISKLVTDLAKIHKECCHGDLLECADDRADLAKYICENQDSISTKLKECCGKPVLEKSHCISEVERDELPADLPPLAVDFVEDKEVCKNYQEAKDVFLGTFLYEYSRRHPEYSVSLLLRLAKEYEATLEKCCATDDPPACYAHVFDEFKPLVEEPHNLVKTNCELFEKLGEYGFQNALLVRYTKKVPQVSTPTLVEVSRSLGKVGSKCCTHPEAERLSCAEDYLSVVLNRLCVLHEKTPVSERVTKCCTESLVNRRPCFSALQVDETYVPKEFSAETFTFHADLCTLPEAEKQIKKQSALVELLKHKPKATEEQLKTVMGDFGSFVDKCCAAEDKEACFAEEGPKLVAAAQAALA
Sequence of Cat albumin (P49064 25-608 limits assumed): as above
T7 sequence (P14639 25-607 limits assumed): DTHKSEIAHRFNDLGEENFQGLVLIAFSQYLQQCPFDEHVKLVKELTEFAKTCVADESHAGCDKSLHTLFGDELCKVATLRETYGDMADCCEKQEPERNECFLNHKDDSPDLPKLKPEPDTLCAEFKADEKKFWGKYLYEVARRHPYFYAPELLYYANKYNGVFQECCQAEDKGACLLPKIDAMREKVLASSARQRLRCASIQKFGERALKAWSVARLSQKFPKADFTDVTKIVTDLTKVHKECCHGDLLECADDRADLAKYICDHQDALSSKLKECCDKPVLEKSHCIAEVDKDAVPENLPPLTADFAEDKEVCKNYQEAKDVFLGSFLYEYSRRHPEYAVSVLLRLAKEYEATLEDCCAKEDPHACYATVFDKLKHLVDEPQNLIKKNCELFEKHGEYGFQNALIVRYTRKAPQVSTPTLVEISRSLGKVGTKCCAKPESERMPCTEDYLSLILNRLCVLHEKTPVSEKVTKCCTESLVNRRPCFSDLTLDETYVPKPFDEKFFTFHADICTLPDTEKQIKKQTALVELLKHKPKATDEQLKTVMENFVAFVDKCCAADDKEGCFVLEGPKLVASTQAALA
T6 sequence (P07724 25-608 limits assumed): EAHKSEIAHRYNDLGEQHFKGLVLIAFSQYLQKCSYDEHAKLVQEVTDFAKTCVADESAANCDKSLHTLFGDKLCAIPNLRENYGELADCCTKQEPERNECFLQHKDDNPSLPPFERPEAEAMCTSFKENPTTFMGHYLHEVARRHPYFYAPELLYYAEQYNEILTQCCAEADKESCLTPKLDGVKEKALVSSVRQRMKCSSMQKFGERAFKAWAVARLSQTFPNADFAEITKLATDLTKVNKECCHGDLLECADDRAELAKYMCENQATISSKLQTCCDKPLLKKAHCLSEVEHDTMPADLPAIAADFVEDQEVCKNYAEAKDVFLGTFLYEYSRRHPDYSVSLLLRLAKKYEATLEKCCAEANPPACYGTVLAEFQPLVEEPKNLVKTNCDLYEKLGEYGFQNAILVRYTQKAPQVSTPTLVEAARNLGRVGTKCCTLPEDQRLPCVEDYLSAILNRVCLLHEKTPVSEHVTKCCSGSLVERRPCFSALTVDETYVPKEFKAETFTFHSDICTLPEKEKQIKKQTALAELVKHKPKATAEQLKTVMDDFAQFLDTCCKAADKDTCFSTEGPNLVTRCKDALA
T2 sequence (P02769 25-607 limits assumed): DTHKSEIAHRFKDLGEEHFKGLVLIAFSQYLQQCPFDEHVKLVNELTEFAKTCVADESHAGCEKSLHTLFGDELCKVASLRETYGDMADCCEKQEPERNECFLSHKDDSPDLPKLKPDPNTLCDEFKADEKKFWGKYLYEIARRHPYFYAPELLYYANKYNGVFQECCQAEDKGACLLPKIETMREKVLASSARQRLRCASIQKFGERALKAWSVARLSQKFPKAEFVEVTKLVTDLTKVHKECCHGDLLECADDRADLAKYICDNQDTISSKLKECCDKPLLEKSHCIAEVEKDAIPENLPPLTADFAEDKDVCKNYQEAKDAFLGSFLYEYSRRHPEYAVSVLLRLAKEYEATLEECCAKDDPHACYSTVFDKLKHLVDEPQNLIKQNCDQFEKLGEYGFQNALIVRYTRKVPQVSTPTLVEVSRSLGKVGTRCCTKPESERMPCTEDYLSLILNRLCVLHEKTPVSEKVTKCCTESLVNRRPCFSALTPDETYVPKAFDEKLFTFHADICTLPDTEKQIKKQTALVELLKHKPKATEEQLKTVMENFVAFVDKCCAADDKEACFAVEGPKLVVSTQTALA
Sequence of horse albumin (P35747 25-607 limits assumed): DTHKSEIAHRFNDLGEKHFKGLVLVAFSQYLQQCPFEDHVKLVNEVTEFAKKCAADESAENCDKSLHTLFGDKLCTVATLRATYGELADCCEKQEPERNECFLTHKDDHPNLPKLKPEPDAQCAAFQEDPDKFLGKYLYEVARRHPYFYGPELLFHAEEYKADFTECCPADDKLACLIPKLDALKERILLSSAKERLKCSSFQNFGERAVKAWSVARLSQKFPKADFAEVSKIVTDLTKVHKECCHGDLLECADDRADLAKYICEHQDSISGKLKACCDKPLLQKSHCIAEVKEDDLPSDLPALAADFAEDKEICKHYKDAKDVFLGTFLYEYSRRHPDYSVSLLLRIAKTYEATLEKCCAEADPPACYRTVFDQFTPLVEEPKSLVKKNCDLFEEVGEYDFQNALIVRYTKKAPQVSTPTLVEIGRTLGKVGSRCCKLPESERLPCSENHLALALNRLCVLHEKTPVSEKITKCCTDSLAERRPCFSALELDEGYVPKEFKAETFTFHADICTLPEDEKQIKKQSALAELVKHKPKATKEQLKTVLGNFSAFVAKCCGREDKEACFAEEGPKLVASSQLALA

B1: SVA04L (VHH, not shown: small tags and cut ends)
VHH: QVQLQQSGGGLVQAGGSLRLACAASGRTLSSYVMGWFRQAPGKEREFVAAISWSGGSTYYADSVKGRFTISRDNAKNTVYLQMNSLKPEDTAVYYCAATLRGSNRYYSGRVYDYWGQGTQVTVSS
- binding result (chicken ovalbumin [1]): no binding (tested: 1000 ng/ml)
- binding result (bovine albumin [2]): no binding (tested: 1000 ng/ml)
- binding result (human albumin [3]): no binding (tested: 1000 ng/ml)
- binding result (swine albumin [4]): no binding (tested: 1000 ng/ml)
- binding result (cat albumin [5]): no binding (tested: 1000 ng/ml)
- binding result (mouse albumin [6]): no binding (tested: 1000 ng/ml)
- binding result (sheep albumin [7]): no binding (tested: 1000 ng/ml)
- maximal absorbance value at 450 nm (chicken ovalbumin [8]): 0.052 A450
- maximal absorbance value at 450 nm (bovine albumin [9]): 0.05 A450
- maximal absorbance value at 450 nm (human albumin [10]): 0.052 A450
- maximal absorbance value at 450 nm (swine albumin [11]): 0.08 A450
- maximal absorbance value at 450 nm (mouse albumin [12]): 0.107 A450
- maximal absorbance value at 450 nm (sheep albumin [13]): 0.052 A450
- maximal absorbance value at 450 nm (cat albumin [14]): 0.087 A450

B2: SVA16L (VHH, not shown: small tags and cut ends)
VHH: QVQLQESGGGVVQAGGSLRLSCAASGRTVSSSAMGWFRLAPGKEREFVVGISRSGGSIFYADSVKGRFTISRKNAKNTVDLQMNSLKPEDTAVYYCAAGYRPGYGDYGRVFYREDEYDDWGQGTQVTVSS
- Kd (Cat albumin [15]): 1.95 nM
- koff (Cat albumin [15]): 0.000287 s⁻¹
- kon (Cat albumin [15]): 147000 M⁻¹ s⁻¹
- Kd (Dog albumin [16]): 11.1 nM
- koff (Dog albumin [16]): 0.00483 s⁻¹
- kon (Dog albumin [16]): 435000 M⁻¹ s⁻¹

B3: SVA16L (VHH, not shown: small tags and cut ends)
VHH: B2 VHH
- binding result (chicken ovalbumin [1]): no binding (tested: 1000 ng/ml)
- binding result (bovine albumin [2]): no binding (tested: 1000 ng/ml)
- binding result (human albumin [3]): no binding (tested: 1000 ng/ml)
- binding result (swine albumin [4]): no binding (tested: 1000 ng/ml)
- binding result (mouse albumin [6]): no binding (tested: 1000 ng/ml)
- binding result (sheep albumin [7]): no binding (tested: 1000 ng/ml)
- maximal absorbance value at 450 nm (chicken ovalbumin [8]): 0.053 A450
- maximal absorbance value at 450 nm (bovine albumin [9]): 0.051 A450
- maximal absorbance value at 450 nm (human albumin [10]): 0.056 A450
- maximal absorbance value at 450 nm (swine albumin [11]): 0.079 A450
- SDA Effective Concentration resulting in A450 nm = 0.2 (dog albumin [17]): 6.4 ng/mL
- maximal absorbance value at 450 nm (dog albumin [17]): 1.76 A450
- maximal absorbance value at 450 nm (mouse albumin [12]): 0.066 A450
- maximal absorbance value at 450 nm (sheep albumin [13]): 0.06 A450

B4: SVA02L (VHH, not shown: small tags and cut ends)
VHH: QVQLQQSGGGLVQAGGSLRLSCAASGRFFSRQVMGWFRQAPGKDREFVGVISWDNGVTFYSDSVKGRFTMSREIAKKTVHLQMNSLKPEDTAVYYCAAGNALHSRYYSPSKYDYWGPGTQVTVSS
- binding result (chicken ovalbumin [1]): no binding (tested: 1000 ng/ml)
- binding result (bovine albumin [2]): no binding (tested: 1000 ng/ml)
- binding result (human albumin [3]): no binding (tested: 1000 ng/ml)
- binding result (swine albumin [4]): no binding (tested: 1000 ng/ml)
- binding result (cat albumin [5]): no binding (tested: 1000 ng/ml)
- binding result (sheep albumin [7]): no binding (tested: 1000 ng/ml)
- maximal absorbance value at 450 nm (chicken ovalbumin [8]): 0.059 A450
- maximal absorbance value at 450 nm (bovine albumin [9]): 0.054 A450
- maximal absorbance value at 450 nm (human albumin [10]): 0.078 A450
- SDA Effective Concentration resulting in A450 nm = 0.2 (horse albumin): 149 ng/mL
- maximal absorbance value at 450 nm (horse albumin): 0.809 A450
- maximal absorbance value at 450 nm (swine albumin [11]): 0.085 A450
- SDA Effective Concentration resulting in A450 nm = 0.2 (dog albumin [17]): 171 ng/mL
- maximal absorbance value at 450 nm (dog albumin [17]): 0.579 A450
- maximal absorbance value at 450 nm (sheep albumin [13]): 0.061 A450
- maximal absorbance value at 450 nm (cat albumin [14]): 0.089 A450
